Measurements taken from article PMC9911399, “Two distinct binding modes provide the RNA-binding protein RbFox with extraordinary sequence specificity”.
Residue numbers refer to the chain shown, from its start. The list shows a part of the results.

T1: RBFOX1 RRM (Homo sapiens, UniProt Q9NWB1 109-208)
T1 sequence: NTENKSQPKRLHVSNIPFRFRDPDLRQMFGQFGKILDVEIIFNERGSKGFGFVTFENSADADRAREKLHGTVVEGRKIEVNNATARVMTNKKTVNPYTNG

B1: UAAAGAU (DNA:RNA)
RNA: GGGAGACCGGAAUUCAGAUUGUCCUAAAGAUUUAAAUCCCGUCGUAGCCACCA
DNA 1: CAATCTGAATTCCGGTCTCCC
DNA 2: TGGTGGCTACGACGGGATT
B2: CUGCACU (DNA:RNA)
RNA: B1 RNA with U25C, A26U, A27G, A28C, G29A, A30C
DNA 1: CAATCTGAATTCCGGTCTCCC
DNA 2: TGGTGGCTACGACGGGATT
B3: UUAAUUG (DNA:RNA)
RNA: B1 RNA with A26U, G29U, A30U, U31G
DNA 1: CAATCTGAATTCCGGTCTCCC
DNA 2: TGGTGGCTACGACGGGATT
B4: GUCUUUA (DNA:RNA)
RNA: GGGAGACCGGAAUUCAGAUUGUCCGUCUUUAUUAAAUCCCGUCGUAGCCACCA
DNA 1: CAATCTGAATTCCGGTCTCCC
DNA 2: TGGTGGCTACGACGGGATT
B5: GUUCUUG (DNA:RNA)
RNA: B4 RNA with C27U, U28C, A31G
DNA 1: CAATCTGAATTCCGGTCTCCC
DNA 2: TGGTGGCTACGACGGGATT
B6: CUUUUAA (DNA:RNA)
RNA: B4 RNA with G25C, C27U, U30A
DNA 1: CAATCTGAATTCCGGTCTCCC
DNA 2: TGGTGGCTACGACGGGATT
B7: ACAGUAC (DNA:RNA)
RNA: B1 RNA with U25A, A26C, A28G, G29U, U31C
DNA 1: CAATCTGAATTCCGGTCTCCC
DNA 2: TGGTGGCTACGACGGGATT
B8: ACUGCUU (DNA:RNA)
RNA: B4 RNA with G25A, U26C, C27U, U28G, U29C, A31U
DNA 1: CAATCTGAATTCCGGTCTCCC
DNA 2: TGGTGGCTACGACGGGATT
B9: UACCGUG (DNA:RNA)
RNA: B1 RNA with A27C, A28C, A30U, U31G
DNA 1: CAATCTGAATTCCGGTCTCCC
DNA 2: TGGTGGCTACGACGGGATT
B10: AUAAUAG (DNA:RNA)
RNA: B1 RNA with U25A, A26U, G29U, U31G
DNA 1: CAATCTGAATTCCGGTCTCCC
DNA 2: TGGTGGCTACGACGGGATT
B11: AGUGCCA (DNA:RNA)
RNA: B4 RNA with G25A, U26G, C27U, U28G, U29C, U30C
DNA 1: CAATCTGAATTCCGGTCTCCC
DNA 2: TGGTGGCTACGACGGGATT
B12: UAUCGAG (DNA:RNA)
RNA: B1 RNA with A27U, A28C, U31G
DNA 1: CAATCTGAATTCCGGTCTCCC
DNA 2: TGGTGGCTACGACGGGATT
B13: UGUACAG (DNA:RNA)
RNA: B1 RNA with A26G, A27U, G29C, U31G
DNA 1: CAATCTGAATTCCGGTCTCCC
DNA 2: TGGTGGCTACGACGGGATT
B14: AUCCCUA (DNA:RNA)
RNA: B4 RNA with G25A, U28C, U29C
DNA 1: CAATCTGAATTCCGGTCTCCC
DNA 2: TGGTGGCTACGACGGGATT
B15: GCUCGUA (DNA:RNA)
RNA: B4 RNA with U26C, C27U, U28C, U29G
DNA 1: CAATCTGAATTCCGGTCTCCC
DNA 2: TGGTGGCTACGACGGGATT
B16: GGAAGGA (DNA:RNA)
RNA: B1 RNA with U25G, A26G, A30G, U31A
DNA 1: CAATCTGAATTCCGGTCTCCC
DNA 2: TGGTGGCTACGACGGGATT
B17: UUGAGCG (DNA:RNA)
RNA: B1 RNA with A26U, A27G, A30C, U31G
DNA 1: CAATCTGAATTCCGGTCTCCC
DNA 2: TGGTGGCTACGACGGGATT
B18: CCGCACC (DNA:RNA)
RNA: GGGAGACCGGAAUUCAGAUUGUCCCCGCACCUUAAAUCCCGUCGUAGCCACCA
DNA 1: CAATCTGAATTCCGGTCTCCC
DNA 2: TGGTGGCTACGACGGGATT
B19: UGCCGUA (DNA:RNA)
RNA: B4 RNA with G25U, U26G, U28C, U29G
DNA 1: CAATCTGAATTCCGGTCTCCC
DNA 2: TGGTGGCTACGACGGGATT
B20: UUUUACC (DNA:RNA)
RNA: B18 RNA with C25U, C26U, G27U, C28U
DNA 1: CAATCTGAATTCCGGTCTCCC
DNA 2: TGGTGGCTACGACGGGATT

molecular target: T1, RBFOX1 RRM; assay: EMSA; HiTS-Eq, 1 nM pool, 10 min; buffer printed only for the single-RNA assays: 10 mM Tris pH 7.5, 150 mM NaCl, 3.4 mM EDTA, 0.001% NP-40, 30 C; settings: tags: His6 N-terminal (pET28a); label: 5' 32P
Procedure, shortened: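 Relative association constants, normalised to the cognate motif, were derived by comparing read counts of each RNA species with those of the control reaction. The RNA sequenced was the free fraction, separated by 8% native PAGE after a 10 min equilibration in 50 µL of 1 nM 5′-radiolabelled RNA (7 randomized nucleotides) with increasing concentrations of purified wild-type or mutant RbFox RRM.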

Row | Binder | binding signal
1 | B1 | 0.006 KA relative to UGCAUGU
2 | B2 | 0.014 KA relative to UGCAUGU
3 | B3 | 0.0141 KA relative to UGCAUGU
4 | B4 | 0.0114 KA relative to UGCAUGU
5 | B5 | 0.0212 KA relative to UGCAUGU
6 | B6 | 0.00804 KA relative to UGCAUGU
7 | B7 | 0.00284 KA relative to UGCAUGU
8 | B8 | 0.00868 KA relative to UGCAUGU
9 | B9 | 0.0094 KA relative to UGCAUGU
10 | B10 | 0.00154 KA relative to UGCAUGU
11 | B11 | 0.00651 KA relative to UGCAUGU
12 | B12 | 0.0122 KA relative to UGCAUGU
13 | B13 | 0.015 KA relative to UGCAUGU
14 | B14 | 0.000926 KA relative to UGCAUGU
15 | B15 | 0.0181 KA relative to UGCAUGU
16 | B16 | 0.00957 KA relative to UGCAUGU
17 | B17 | 0.026 KA relative to UGCAUGU
18 | B18 | 0.00593 KA relative to UGCAUGU
19 | B19 | 0.0135 KA relative to UGCAUGU
20 | B20 | 0.00694 KA relative to UGCAUGU
